Source: US20190218262A1 (published 2019)
Several values for one entry are separate records, joined by “and”; a condition that tells them apart may be missing. Equal values may be shown once.

Columns and labels:
human BMP4 [1] = target: T1, human BMP4 (human, UniProt P12644 293-408); experiment: cell-based or functional assay
T1 sequence (looked up): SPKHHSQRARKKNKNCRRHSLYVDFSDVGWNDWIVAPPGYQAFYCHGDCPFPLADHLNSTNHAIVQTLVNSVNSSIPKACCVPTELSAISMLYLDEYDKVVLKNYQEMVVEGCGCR

human BMP6 [2] = target: T2, human BMP6 (human, UniProt P22004 382-513, limits assumed); experiment: cell-based or functional assay
T2 sequence (looked up): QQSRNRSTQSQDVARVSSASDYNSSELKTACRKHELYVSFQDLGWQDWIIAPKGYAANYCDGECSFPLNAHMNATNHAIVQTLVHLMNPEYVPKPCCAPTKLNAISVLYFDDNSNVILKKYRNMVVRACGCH

human BMP2 [3] = target: T3, human BMP2 (human, UniProt P12643 283-396); experiment: cell-based or functional assay
T3 sequence (looked up): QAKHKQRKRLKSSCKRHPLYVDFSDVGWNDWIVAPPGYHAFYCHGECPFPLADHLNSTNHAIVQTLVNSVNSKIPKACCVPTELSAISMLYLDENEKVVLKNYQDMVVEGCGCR

human BMP7 [4] = target: T4, human BMP7 (human, UniProt P18075 293-431); experiment: cell-based or functional assay
T4 sequence (looked up): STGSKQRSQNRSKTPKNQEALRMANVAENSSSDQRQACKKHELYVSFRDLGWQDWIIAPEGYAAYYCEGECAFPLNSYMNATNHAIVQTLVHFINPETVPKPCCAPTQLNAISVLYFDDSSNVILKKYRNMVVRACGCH

human BMP9 [5] = target: T5, human BMP9 (human, UniProt Q9UK05 320-429); experiment: cell-based or functional assay
T5 sequence (looked up): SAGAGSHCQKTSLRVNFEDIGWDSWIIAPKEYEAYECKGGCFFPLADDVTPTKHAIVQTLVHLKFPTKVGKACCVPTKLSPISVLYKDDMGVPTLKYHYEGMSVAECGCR

human BMP10 [6] = target: T6, human BMP10 (human, UniProt O95393 317-424); experiment: cell-based or functional assay
T6 sequence (looked up): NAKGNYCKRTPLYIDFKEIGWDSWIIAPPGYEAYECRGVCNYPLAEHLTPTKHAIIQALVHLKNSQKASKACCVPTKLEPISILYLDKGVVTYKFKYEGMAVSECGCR

human BMP10 [7] = target: T6, human BMP10; experiment: SPR (BIACORE), TWSG-Fc captured with anti-Fc antibody, 37 C
human BMP4 [8] = target: T1, human BMP4; experiment: SPR (BIACORE), TWSG-Fc captured with anti-Fc antibody, ligand injected, 37 C
Text: (§1) Previous studies have determined that TWSG, or its nonmammalian homolog Tsg, binds with high affinity to BMP2, BMP4, and BMP7 (Oelgeschläger et al., 2000, Nature 405:757-763; Scott et al., 2001, Nature 410:475-478; Chang et al., 2001, Nature 410:483-487). Since these studies have not systematically evaluated TWSG (or Tsg) binding to other TGFβ superfamily ligands, Applicants used surface plasmon resonance to investigate and characterize such binding. In an initial qualitative screen, recombinant murine TWSG (mTWSG; R&D Systems, Minneapolis, Minn.) was covalently immobilized on a BIACORE™ CMS chip, and more than 30 ligands generated in-house or obtained from R&D Systems were injected individually over the captured mTWSG to characterize their degree of binding at room temperature. Based on the results of this screen, Applicants subjected selected ligands to quantitative characterization of binding to human TWSG fusion protein at physiologic temperature. For this analysis, TWSG-Fc was expressed in CHO cells, purified as described in Example 1, captured on a BIACORE™ chip with anti-Fc antibody, and tested by surface plasmon resonance with the following ligands at 37° C.

human BMP6 [9] = target: T2, human BMP6; experiment: as above
Text: as §1

human BMP2 [10] = target: T3, human BMP2; experiment: as above
Text: as §1

human BMP7 [11] = target: T4, human BMP7; experiment: as above
Text: as §1

human BMP9 [12] = target: T5, human BMP9; experiment: as above
Text: as §1

B1: human TWSG-Fc fusion protein (Fc fusion)
chain: CNKALCASDVSKCLIQELCQCRPGEGNCSCCKECMLCLGALWDECCDCVGMCNPRNYSDTPPTSKSTVEELHEPIPSLFRALTEGDTQLNWNIVSFPVAEELSHHENLVSFLETVNQPHHQNVSVPSNNVHAPYSSDKEHMCTVVYFDDCMSIHQCKISCESMGASKYRWFHNACCECIGPECIDYGSKTVKCMNCMFTG[no letters for human IgG1 Fc and a few adjoining residues]
notes: Captured on the chip with anti-Fc antibody for SPR; also called hTWSG-hFc; TWSG-hFc
With B1 the “IC50, BRE-luciferase reporter gene assay (T98G or HepG2 cells)” value (from here on “IC50, BRE-luciferase reporter gene assay”) (human BMP4 [1]) was 208 ng/mL and 2.2 nM, the “IC50, BRE-luciferase reporter gene assay” value (human BMP6 [2]) was 351 ng/mL and 3.7 nM and the “IC50, BRE-luciferase reporter gene assay” value (human BMP2 [3]) was 2960 ng/mL and 31 nM. The “IC50, BRE-luciferase reporter gene assay” value (human BMP7 [4]) was 1.5 nM, the “IC50, BRE-luciferase reporter gene assay” value (human BMP9 [5]) was > 31 nM and > 3000 ng/mL and the “IC50, BRE-luciferase reporter gene assay” value (human BMP10 [6]) was > 3000 ng/mL and > 31 nM. For the same binder, the binding result (human BMP10 [7]) was “no binding”, the Kd (human BMP4 [8]) was 0.23 nM and the koff (human BMP4 [8]) was 0.0014 s⁻¹. For the same binder, the Kd (human BMP6 [9]) was 0.23 nM, the koff (human BMP6 [9]) was 0.0019 s⁻¹ and the kon (human BMP6 [9]) was 8.2e+06 M⁻¹ s⁻¹. For the same binder, the Kd (human BMP2 [10]) was 0.3 nM, the koff (human BMP2 [10]) was 0.0022 s⁻¹ and the kon (human BMP2 [10]) was 7.4e+06 M⁻¹ s⁻¹. The Kd (human BMP7 [11]) was 0.33 nM, the koff (human BMP7 [11]) was 0.0016 s⁻¹ and the kon (human BMP7 [11]) was 4.8e+06 M⁻¹ s⁻¹. For the same binder, the Kd (human BMP9 [12]) was 4.4 nM and the koff (human BMP9 [12]) was 0.025 s⁻¹.
